# PubChem BioAssay AID488969 (Vanderbilt High Throughput Screening Facility, 2010)
# In all, about 110,000 compounds were measured (“z-score”: median about -0.1, highest 2% from about 2 on). The list shows a part of the results.
# Molecular target: Metabotropic glutamate receptor 8 (Rattus norvegicus) (UniProt P70579)
# Experiment: rat mGluR8 modulators via GIRK flux, primary screen, cell-based, thallium flux, HTS (AID 488969)
# Details: HEK293 rat mGluR8, GIRK (G protein-gated inwardly rectifying potassium channel) thallium flux, FluoZin2; at 10 µM; stronger effect = higher value; submaximal glutamate (EC20) added with thallium
# Sequence of UniProt P70579 (P70579 whole entry, looked up): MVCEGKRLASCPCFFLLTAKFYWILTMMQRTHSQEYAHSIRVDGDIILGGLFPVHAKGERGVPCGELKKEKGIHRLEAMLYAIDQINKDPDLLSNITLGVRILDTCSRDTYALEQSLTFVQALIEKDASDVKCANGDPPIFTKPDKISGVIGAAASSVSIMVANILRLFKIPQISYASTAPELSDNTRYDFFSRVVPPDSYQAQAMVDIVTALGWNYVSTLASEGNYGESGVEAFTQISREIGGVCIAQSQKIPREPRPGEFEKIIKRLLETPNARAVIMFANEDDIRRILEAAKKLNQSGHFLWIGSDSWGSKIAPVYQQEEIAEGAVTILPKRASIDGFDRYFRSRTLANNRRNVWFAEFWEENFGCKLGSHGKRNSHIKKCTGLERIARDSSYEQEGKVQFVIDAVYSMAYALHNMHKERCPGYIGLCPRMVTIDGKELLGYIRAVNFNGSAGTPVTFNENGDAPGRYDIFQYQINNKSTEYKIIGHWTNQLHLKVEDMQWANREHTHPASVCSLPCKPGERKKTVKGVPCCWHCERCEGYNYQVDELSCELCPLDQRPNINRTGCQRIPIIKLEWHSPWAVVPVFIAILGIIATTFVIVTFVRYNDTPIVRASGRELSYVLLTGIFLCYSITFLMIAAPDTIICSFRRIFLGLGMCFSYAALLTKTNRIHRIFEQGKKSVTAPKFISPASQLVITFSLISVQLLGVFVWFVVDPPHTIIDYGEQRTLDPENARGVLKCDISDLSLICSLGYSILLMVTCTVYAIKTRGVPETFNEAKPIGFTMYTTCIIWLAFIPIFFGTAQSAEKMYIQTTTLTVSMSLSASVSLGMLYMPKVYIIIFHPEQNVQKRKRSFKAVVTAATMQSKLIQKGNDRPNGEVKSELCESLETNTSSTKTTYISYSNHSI
row,Structure (SMILES),z-score
1,O=C1C(Nc2cccc(O)c2)=C(N2CCCCC2)C(=O)c2ccccc21,0.369
2,CCOC(=O)c1c(C)oc2cc3c(C(=O)OCC)c(C)oc3cc12,-0.093
3,O=C(O)CCC(=O)N1CCc2cc(S(=O)(=O)Nc3ccc4c(c3)OCCO4)ccc21,-0.517
4,Cn1c2c(c(=O)c3ccccc31)CCC(C)(C)O2,-0.255
5,CCCn1c(=O)[nH]c(=O)c2c1nc(-c1ccc(OC(F)F)cc1)n2CCN1CCOCC1,-0.179
6,Cc1ccc2[nH]c3c(c2c1)CN(C(=O)CN1c2ccc(F)cc2CCC1C)CC3 (stereo unspecified),-0.0592
7,COc1ccccc1-n1c(SCC(=O)O)nnc1-c1ccc(S(=O)(=O)N2CCCCC2)cc1,-0.42
8,O=C(CCCn1c(=O)c2ccccc2n(CC(=O)NCc2ccco2)c1=O)NCc1ccco1,-0.277
9,CCn1c(SCc2ccccc2)nnc1-c1cccs1,0.797
10,COc1cc(C2CC(=O)N3CN(c4ccccc4C)CSC3=C2C#N)cc(OC)c1OC (stereo unspecified),0.237
11,O=C(NN1C(=O)C2C3C=CC(C4CC34)C2C1=O)c1ccc(Cl)cc1Cl (stereo unspecified),-0.0308
12,Cc1sc(NC(=O)c2cccs2)c(C(=O)OC(C)C)c1C,0.117
13,COc1ccc(NC(=O)C(Sc2nnc3ccccn23)c2ccccc2)cc1Cl (stereo unspecified),-0.0405
14,O=C(NCCCn1ccnc1)c1cc2ccccc2oc1=O,-0.0604
15,COc1ccccc1CNC(=O)/C=C/c1cc2c(cc1Br)OCO2,-0.0108
16,C/C(CCc1ccc2c(c1)OCO2)=N\N=C1\NC(=O)CC(C(=O)Nc2ccc(Cl)cc2)S1 (stereo unspecified),-0.259
17,CC1(C)CC(=O)C2=C(C1)N(c1ccc(F)cc1)C(=O)C2(O)C(F)(F)F (stereo unspecified),-0.0291
18,Cc1nn(-c2ccccc2)c2c1C(=O)N(c1ccccc1)C(=O)C(C)(C)C2,0.165
19,O=C(CSc1ncc(-c2ccccc2)[nH]1)Nc1cccc(O)c1,-0.0843
20,CC(=O)Nc1ccc(S(=O)(=O)NNC(=O)COc2cccc3ccccc23)cc1,0.0073
21,CCCCNCC(=O)Nc1sc(C)c(C)c1C(=O)OCC,-0.497
22,O=C(c1ccco1)n1nc(NCc2ccccc2)nc1NCc1ccccc1,0.126

row,Structure (SMILES),z-score
1,Cc1cc(C(=O)OCC(=O)NCCC(C)C)c2ccccc2n1,0.0159
2,CC(C)(C)Oc1ncc(Br)c(OC(C)(C)C)n1,-0.0332
3,CC(C)Cn1c2ccccc2c2cc(C(=O)O)ccc21,0.449
4,CC(C)Cc1nc(S(=O)(=O)c2ccc(Cl)cc2)c(N2CCOCC2)o1,-0.0996
5,Cc1nnc(NC(=O)C(C)Sc2nncn2C)s1 (stereo unspecified),-0.533
6,CN(CC(=O)Nc1ccc(Cl)c(Cl)c1)C(=O)/C=C/c1ccc(F)cc1,-0.298
7,CN(Cc1ccccc1)S(=O)(=O)c1cccs1,-0.244
8,COC(=O)c1cc2n(n1)CCN(Cc1ccccc1Cl)C2=O,-0.487
9,CCOc1ccc(N2CC(C(=O)NCCCN3CCOCC3)CC2=O)cc1 (stereo unspecified),-0.0255
10,Cc1ccccc1NC(=O)CCC(=O)OCC(=O)c1ccc(-c2ccccc2)cc1,0.0456
11,COc1cc(C(=O)O/N=C2/C=C(C)C(=O)C=C2C)cc(OC)c1OC,-0.305
12,CC(=O)c1cccc(N(C(=O)Cn2nnc3ccccc32)C(C(=O)NC2CCCCC2)c2cn(C)nc2C)c1 (stereo unspecified),0.459
13,Cc1c(N=Cc2cc(Br)cc(Br)c2O)cccc1C(=O)O,-0.81
14,CN1CCC/C1=C/C=C1\SC(=S)NC1=O,2.4
15,CN(C)S(=O)(=O)N(CC(=O)Nc1ccc2ccccc2c1)c1ccccc1,1.91
16,Cc1ccc(C(=O)NCc2ccc(Cl)cc2)o1,1.66
17,COc1ccc(N(CC(=O)Nc2cc(Cl)ccc2OC)S(=O)(=O)c2c(C)noc2C)cc1,-0.377
18,COc1ccc(OC)c(NC(=O)CSc2ncccc2C(=O)O)c1,-0.0307
19,CC(C)CNS(=O)(=O)c1cc(C(=O)N2CC(C)OC(C)C2)c(Cl)cc1Cl (stereo unspecified),0.133
20,COc1ccccc1OCc1ccc(C(=O)NCc2ccco2)o1,-0.38
21,CC1(C)NC(=O)N(CC(O)CN2C(=O)NC(C)(C)C2=O)C1=O,-1.24
22,COc1cc(OC)cc(C(=O)Nc2cccc(C(C)=O)c2)c1,-0.0192

row,Structure (SMILES),z-score
1,CCN(CC)CCCN1C(=O)C(=O)/C(=C(/O)c2ccc3c(c2)OCO3)C1c1ccccn1 (stereo unspecified),-0.271
2,COc1ccc(N(CC(=O)N2CCN(C)CC2)S(C)(=O)=O)cc1OC,0.943
3,O=C(CN1CCc2ccccc21)NCc1ccccc1Cl,-0.54
4,O=C(Nc1nccs1)C1CC(=O)N(c2ccccc2Cl)C1 (stereo unspecified),-0.00396
5,O=C(NCc1ccc2c(c1)OCO2)C1CC(=O)N(CCc2ccccc2)C1 (stereo unspecified),-0.576
6,CCCc1noc2c1C(c1ccoc1)C(C#N)=C(N)N2 (stereo unspecified),-1.74
7,COc1ccc(OC)c2[nH]c(=O)c(CCNS(=O)(=O)c3ccc(C)cc3)cc12,-0.44
8,Cc1ccc(/C(O)=C2\C(=O)C(=O)N(Cc3cccnc3)C2c2ccccc2[N+](=O)[O-])cc1 (stereo unspecified),-0.293
9,CCOc1ccc(/C=N/NC(=O)C(C)Sc2ccccn2)cc1OCC (stereo unspecified),-0.584
10,CCCCCCOC(=O)c1ccc(OC(=O)c2cccnc2)cc1,0.019
11,O=[N+]([O-])c1c(NCCCO)cc(Sc2nc3ccccc3s2)c2nonc12,1.13
12,O=C(NC12CC3CC(CC(C3)C1)C2)N1CCC(O)CC1,-0.182
13,COc1ccc(CCNS(=O)(=O)c2cccc(C)c2)cc1OC,-0.309
14,COc1cc(NC(=O)C2CCN(S(=O)(=O)c3ccc(Cl)cc3)CC2)ccc1-n1cnnn1,-0.131
15,COc1ccc(C)cc1S(=O)(=O)N(CC(=O)Nc1cccc([N+](=O)[O-])c1)c1ccccc1,-0.1
16,CCn1c(Cn2nnc(-c3ccccc3)n2)nnc1SCC(=O)Nc1ccc(C(C)=O)cc1,-0.345
17,CC1CCCC(C)N1S(=O)(=O)c1ccc(NC(=O)c2ccccc2C(=O)N2CCOCC2)cc1 (stereo unspecified),0.292
18,COc1ccccc1/C=N/Nc1nncc2ccccc12,0.0544
19,COc1ccc(N=C2SC(CC(=O)Nc3ccccc3)C(=O)N2CC2CCCO2)cc1 (stereo unspecified),-0.432
20,CC(NC(=O)c1cccs1)C(c1cccs1)N1CCOCC1 (stereo unspecified),-0.101
21,Nc1nc(Nc2ccc(Cl)cc2Cl)nc(C(F)(F)F)n1,0.289
22,CCOc1ccc(-n2nc3c(-n4ncc(C#N)c4N)nnc(C)c3c2C)cc1,-0.0191

row,Structure (SMILES),z-score
1,O=C(C[n+]1cccc(NC(=O)c2ccccc2)c1)c1ccccc1,0.023
2,CCO/C=N/c1c(C#N)c2c(c(=S)n1C)COC(C)(C)C2,-0.708
3,COc1cc(/C=N\n2cnnc2)ccc1OCC(=O)Nc1ccc(C)cc1,0.277
4,Cc1oc2c(cc(NS(=O)(=O)c3cccs3)c3ccccc32)c1C(=O)OC(C)C,0.372
5,Cc1ccc(-c2nnc(Oc3ccc(NC(=O)c4ccccc4)cc3)c3ccccc23)cc1,-0.122
6,O=C(Nc1cc(C(F)(F)F)ccc1N1CCOCC1)c1ccco1,0.297
7,Cc1nn(C)c(C)c1CN(C)C(=O)c1nn2c(c1Br)NC(c1cccs1)CC2C(F)(F)F (stereo unspecified),2.24
8,Cc1cc(NC(=O)CCN2CCC(C(N)=O)CC2)ccc1Br,0.255
9,Cc1ccc(OCC(=O)Nc2ccccc2Sc2ccc(Cl)cc2)c([N+](=O)[O-])n1,-0.552
10,CCOC(=O)C1=C(C)NC(SCC(=O)OC)=C(C#N)C1c1ccc(C(=O)OC)cc1 (stereo unspecified),0.0233
11,Cc1nc2ccc(S(=O)(=O)NCC(=O)N3CCOCC3)cc2s1,-0.0788
12,COc1cccc(-c2cc(C(=O)Nc3cccnc3)no2)c1,0.128
13,CCC1CCCCN1S(=O)(=O)c1ccc(C(=O)Nc2nnc(-c3ccccc3Cl)o2)cc1 (stereo unspecified),1.12
14,O=C1CSC(c2cn(-c3ccccc3)nc2-c2cc3ccccc3oc2=O)N1Cc1cccnc1 (stereo unspecified),0.000712
15,CC(=O)c1cccc(S(=O)(=O)N(Cc2cc3cc4c(cc3[nH]c2=O)OCCO4)CC2CCCO2)c1 (stereo unspecified),0.32
16,CCOC(=O)c1sc(NC(=O)/C=C/c2cnn(CC)c2C)c(C(=O)OCC)c1C,-0.442
17,O=C(c1ccccc1)c1cccn1CC(=O)N1CCN(C2CCCCC2)CC1,0.102
18,Cn1c(=O)cc(N2CCc3ccccc32)[nH]c1=O,-0.292
19,Cc1cccc(C)c1-n1c(C)cc(/C=N\Nc2ccc([N+](=O)[O-])cn2)c1C,-0.113
20,CSCCC(NC(=O)OCc1ccccc1)C(=O)O (stereo unspecified),0.475
21,O=C(c1ccccc1)c1ccc(OC(=O)N2CCCC2)cc1,-0.322
22,Cc1ccc(CNC(=O)CN(C2CCCCC2)S(C)(=O)=O)cc1,-0.118

row,Structure (SMILES),z-score
1,O=c1c2cccnc2[nH]c(=S)n1CCCN1CCN(c2ccccc2F)CC1,-0.417
2,O=C(Nc1cnn(C23CC4CC(CC(C4)C2)C3)c1)c1cnn2c(C(F)(F)F)cc(-c3ccco3)nc12,0.0082
3,Cc1c(C(=O)N2CCCCCC2)oc2ccccc12,-0.117
4,COc1cc2[nH]c(=O)n(CCCCCC(=O)N3CCN(c4ccccc4)CC3)c(=O)c2cc1OC,-0.317
5,CC(=O)CC(c1ccc([N+](=O)[O-])cc1)c1c(O)c2ccccc2oc1=O (stereo unspecified),-0.233
6,CN(C)/C(=N\S(=O)(=O)c1ccccc1)c1ccc([N+](=O)[O-])cc1,0.0563
7,Cn1cc(C(=O)c2ccc(F)cc2)cc1-c1nc2ccccc2n1C,0.176
8,CCOC(=O)C(=O)Nc1nnc(CCc2ccccc2)s1,-0.456
9,COc1ccc(-c2cc(=O)oc3cc(OC(=O)C4CCCCC4)c(Cl)cc23)cc1,-0.663
10,CC(C)(C)c1ccc(-c2csc(NNC3=NCCCCC3)n2)cc1,1.11
11,CCC(=O)Oc1ccc2c(C)cc(=O)oc2c1C(=O)c1ccccc1,-0.282
12,COc1ccc(CNc2ncnc(N)n2)cc1,-0.153
13,CC1(C)Cc2cccc(OCC(=O)N3CCN(S(=O)(=O)c4ccccc4)CC3)c2O1,-0.297
14,Cc1cnc(C(=O)OCC(=O)Nc2ccc(Oc3ccccc3)cc2)cn1,-1.98
15,O=C1c2cccnc2C(=O)N1Cc1cccs1,0.826
16,CC(=O)NC1C(=O)N=C(SCC(=O)NC(C)c2ccccc2)NC1=O (stereo unspecified),0.154
17,CC(=O)NS(=O)(=O)c1ccc(NC(=O)c2ccc3c(c2)C(=O)N(CCC(C)C)C3=O)cc1,-0.145
18,CN(C)CCCNS(=O)(=O)c1ccc(N2CCC(c3ccc(Cl)cc3)=N2)cc1,2.59
